# The other results are listed elsewhere or left out. The energies were worked out here from pooled read counts, against the library average; single values are noisy.
# Biological target: T1, Pho4 (S. cerevisiae) (UniProt P07270)
# T1 sequence: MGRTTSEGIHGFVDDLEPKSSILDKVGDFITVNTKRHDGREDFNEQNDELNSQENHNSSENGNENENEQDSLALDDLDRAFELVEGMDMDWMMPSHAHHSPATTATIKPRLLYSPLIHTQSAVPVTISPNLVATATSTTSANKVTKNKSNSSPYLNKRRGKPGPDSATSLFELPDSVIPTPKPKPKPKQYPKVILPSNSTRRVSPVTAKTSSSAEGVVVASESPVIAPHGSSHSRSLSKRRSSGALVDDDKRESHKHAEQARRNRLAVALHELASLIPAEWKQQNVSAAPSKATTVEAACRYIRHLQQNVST
# Experiment: relative binding free energy (BET-seq); higher = weaker binding
# Conditions: reference: library average
row,Sequence,relative binding free energy [kcal/mol]
1,AGTGGCACGTGGATCG,-0.18
2,GGGTACACGTGAGAGT,0.41
3,GTTATCACGTGTTAGT,0.17
4,ACGGGCACGTGAGTTT,0.12
5,ATGTTCACGTGCATGC,0.27
6,AGACACACGTGTTGGT,0.05
7,ATTTACACGTGACAGG,0.24
8,GGGGGCACGTGCGCCG,-0.24
9,GGGGGCACGTGGCCTT,-0.22
10,GGTCGCACGTGGGTGC,-0.15
11,AGGGGCACGTGATAGA,-0.1
12,TGAGCCACGTGGTTGG,-0.16
13,AAGGGCACGTGGATGC,-0.15
14,CTGATCACGTGCTTGG,0.19
15,ATAGGCACGTGATTTA,-0.18
16,GTTAACACGTGATGTT,0.13
17,AGTGGCACGTGTTCTG,-0.14
18,GATCGCACGTGTGTGA,0.23
19,AGTGTCACGTGCGATT,-0.06
20,TTTCTCACGTGAAGTG,0.31
21,AAAGGCACGTGTTGTT,-0.13
22,TGTTCCACGTGGTGTG,-0.07
23,GGCGGCACGTGTTGAG,-0.09

row,Sequence,relative binding free energy [kcal/mol]
1,TTTAGCACGTGGGATC,-0.1
2,ATTGTCACGTGTTTAC,0.2
3,AGAATCACGTGTGTGT,0.12
4,ACTTTCACGTGTGGCT,0.24
5,TAACTCACGTGGTTTT,0.08
6,GTTGGCACGTGGTTGT,-0.04
7,TGCTTCACGTGCAGTT,0.3
8,ATCTACACGTGGTTTA,0.09
9,GTTCCCACGTGTTAGG,0.09
10,TAAAACACGTGTATAT,0.1
11,TATGTCACGTGCGCTG,0.01
12,ATGCGCACGTGGTAGA,-0.22
13,TGTAGCACGTGTGATC,0.02
14,GTTTGCACGTGAGGTG,0.32
15,TTGCTCACGTGAGTGT,0.31
16,GTTCACACGTGTGGTG,0.17
17,AAGGGCACGTGTGTGG,-0.08
18,CTATTCACGTGGTTAG,0.27
19,TAGGACACGTGTGGTA,-0.04
20,AGCTTCACGTGCGTTT,0.35
21,TATTTCACGTGTACAT,0.32
22,TGTATCACGTGGTAAA,0.3
23,ATAGTCACGTGTGGTA,0.21

row,Sequence,relative binding free energy [kcal/mol]
1,CTTATCACGTGGCGTT,0.1
2,GGGTTCACGTGGTTGG,0.3
3,GTATTCACGTGGGCAG,0.16
4,GGGGTCACGTGTTGTG,0.15
5,AGAATCACGTGCGTGT,0.29
6,GTTTTCACGTGGCGTT,0.27
7,AGTGCCACGTGGCGCG,-0.04
8,ATAGACACGTGGAATG,0.07
9,ATAGTCACGTGGAATT,0.15
10,AGGGTCACGTGATCGC,0.18
11,ATGGCCACGTGGGGTC,-0.19
12,TCGGTCACGTGTGGGA,0.26
13,ATGAGCACGTGAAGGT,0.12
14,GGGCTCACGTGTGAAA,0.44
15,TGTAGCACGTGCGTTC,-0.15
16,TAGGACACGTGTGGAT,0.17
17,AATTGCACGTGGCGAG,-0.1
18,GGAGGCACGTGAACGG,0.14
19,GCTGGCACGTGCTTTG,-0.04
20,TACTGCACGTGGCGTG,-0.08
21,CGTCGCACGTGGTAGT,-0.11
22,TTGGTCACGTGCGATT,0.11
23,AAGGGCACGTGGGGGG,-0.28

row,Sequence,relative binding free energy [kcal/mol]
1,GTACTCACGTGGGCGT,-0.02
2,CGGGTCACGTGGCTGG,0.1
3,TGAAGCACGTGATAGT,0.04
4,TGGTGCACGTGTGGAA,0.11
5,AATAACACGTGAGTAT,0.42
6,GGATTCACGTGTAGTT,0.32
7,GGGAGCACGTGATTGT,0.09
8,TGTGTCACGTGGAATG,0.21
9,AATTGCACGTGGTGGA,-0.07
10,TGGATCACGTGTTTCG,0.09
11,TACATCACGTGTTTTT,0.09
12,ATTGCCACGTGATGGG,-0.07
13,GGAGGCACGTGATGGA,0.04
14,GATGGCACGTGGTAGA,-0.08
15,ATTATCACGTGGCAGG,0.04
16,TGTTACACGTGTTTAA,0.12
17,TACTGCACGTGAGGGG,0.19
18,ATCAGCACGTGGCGGT,-0.13
19,GTTTTCACGTGGGTTA,0.21
20,GTAAACACGTGGCGGT,-0.08
21,TTGGACACGTGGCGTG,-0.08
22,CTGTGCACGTGTGAAT,0.04
23,TTTAGCACGTGTAACA,0.14

row,Sequence,relative binding free energy [kcal/mol]
1,TGCTTCACGTGAAATG,0.47
2,GTTCTCACGTGGTAAG,0.25
3,ACTCGCACGTGGGTGT,-0.18
4,CAGGTCACGTGGAGGG,0.05
5,GATTTCACGTGATAGA,0.46
6,TTGAGCACGTGGTCAA,-0.15
7,GGAATCACGTGGGTCT,0.11
8,AATAACACGTGTGAAG,0.24
9,ATGTGCACGTGTTATA,-0.09
10,AATGTCACGTGCGGGC,-0.02
11,GTGAACACGTGAGTTT,0.36
12,AGATGCACGTGGGCGG,-0.16
13,CGTGGCACGTGGGCAA,-0.33
14,TGCTGCACGTGATGAA,0.15
15,TGTCTCACGTGTTAGG,0.18
16,GCGGTCACGTGGTGCA,0.05
17,TGTATCACGTGGATGT,0.03
18,GAGAGCACGTGTTTTT,0.01
19,TGAGTCACGTGGTGAT,0.01
20,TACGGCACGTGGAGTG,-0.19
21,TCTTTCACGTGTTAAG,0.22
22,TCAGACACGTGGTAGT,-0.09
23,AAGGTCACGTGGTTTA,0.18
